Hit rate of the full screen: of about 150,000 compounds, about 6,500 (4.3%) were called active. Inconclusive results, whose numbers are uncertain, are shown with a selection of clear calls. Calls follow the shape of the dose curve; as a rule, active = well fitted inhibition curve with a large enough effect (not every such curve was filed as active); inconclusive = small, poorly fitted or top-dose-only effect, or another doubt; inactive = no such curve, though single readings can be large or run the other way. No potency is given beside an inconclusive call; the fits are too rough.
Molecular target: 15-hydroxyprostaglandin dehydrogenase [NAD(+)] (Homo sapiens) (UniProt P15428)
Sequence of UniProt P15428 (P15428 whole entry, looked up): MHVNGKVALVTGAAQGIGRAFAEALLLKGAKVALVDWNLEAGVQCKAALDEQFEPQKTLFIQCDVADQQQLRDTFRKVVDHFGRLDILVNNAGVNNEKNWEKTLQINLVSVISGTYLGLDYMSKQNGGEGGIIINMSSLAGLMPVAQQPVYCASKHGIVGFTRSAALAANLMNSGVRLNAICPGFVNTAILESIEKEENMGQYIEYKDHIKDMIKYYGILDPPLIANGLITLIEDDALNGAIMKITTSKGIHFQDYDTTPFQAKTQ
Assay: qHTS Assay for Inhibitors of HPGD (15-Hydroxyprostaglandin Dehydrogenase)
Conditions: purified HPGD, NADH fluorescence kinetic, PGE2 substrate; activity change, negative = inhibition: stronger effect = lower value
How it was run: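 20 nM HPGD preincubated 15 min at room temperature with compound in 50 mM Tris-HCl pH 8, 0.01% Tween 20. Started with 1 mM NAD+ and 30 uM prostaglandin E2; NADH fluorescence (360/450 nm) read 5 times over 30-s intervals, last minus first.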
% is scaled to controls: 0 for no effect and ±100 for the full control effect; potency is read from the fitted curve at half-maximal effect; tags tell the direction and shape of the fitted curve.

| SMILES | activity change, negative = inhibition | Potency |
| --- | --- | --- |
| CCOC(=O)c1ccc(NC(=O)CSCc2ccco2)cc1 | inactive: -27.2% | – |
| COc1cccc(C2=NC(C)(C)NC(c3ccccc3O)C2)c1 (centres undefined) | – | inconclusive [inhibitor, partial curve] |
| COCCNC(=O)Cn1c(=O)n(CCCCCC(=O)Nc2ccccc2)c(=O)c2sccc21 | – | inconclusive [inhibitor, partial curve] |
| COc1ccc(Cn2nnnc2C(c2cccs2)N2CCN(c3ccc([N+](=O)[O-])cc3)CC2)cc1 (centres undefined) | inactive: -17.8% | – |
| CCOC(=O)CC1(C)NC(=O)c2c(C)sc(C(=O)OCC)c2N1 (centres undefined) | – | inconclusive [inhibitor, partial curve] |
| Cc1ccc(CN2CCNC(=O)C2CC(=O)O)o1 (centres undefined) | inactive: -4.05% | – |
| CCOC(=O)N1CCN(C(=O)CNC(=O)c2nn(-c3ccc(OC)cc3)c(=O)c3ccccc23)CC1 | inactive: 3.01% | – |
| COc1ccc(NC(=O)C(=O)N/N=C/c2cc(C)n(-c3cccc(Cl)c3Cl)c2C)c(OC)c1 | – | inconclusive [inhibitor, partial curve] |
| CNC(=S)N/N=C/c1cn(CCOc2cccc(OC)c2)c2ccccc12 | – | active: 15.8 µM |
| CC(C)C(C)(C#N)NC(=O)CSc1nc2scc(-c3ccccc3)c2c(=O)[nH]1 (centres undefined) | – | inconclusive [inhibitor, single point] |
| O=C(Nc1ccc(Cl)cc1C(=O)Nc1ccccn1)c1ccco1 | – | inconclusive [inhibitor, single point] |
| CCOC(=O)c1cc(-c2ccncc2)nc2c1c(C)nn2-c1ccccn1 | inactive: -10.2% | – |
| CCN(C(=O)COC(=O)c1ccccc1Nc1cccc(C)c1C)C1CCS(=O)(=O)C1 (centres undefined) | – | inconclusive [inhibitor, partial curve] |
| CCC1CCC2(CC1)NC(CO)(CO)CO2 (centres undefined) | inactive: -6.71% | – |
| Cc1cc(C(=O)NCc2ccccc2)c(=O)[nH]c1C | – | inconclusive [inhibitor, partial curve] |
| O=C(O)CCCC(=O)Nc1ccc(Sc2ccc([N+](=O)[O-])cc2)cc1 | – | inconclusive [inhibitor, partial curve] |
| CCOc1cccc(-c2nnc3sc(-c4cc(OC)c(OC)c(OC)c4)nn23)c1 | – | inconclusive [inhibitor, partial curve] |
| O=C(CC(=O)c1ccccc1O)c1ccc(F)cc1 | – | active: 17.8 µM |
| O=C(CSc1ncccc1-c1nc2ccccc2[nH]1)NCc1ccco1 | – | inconclusive [inhibitor, partial curve] |

Reference: PubChem BioAssay AID894 (National Center for Advancing Translational Sciences (NCATS), 2007)
